# Results published in PubChem BioAssay AID504333 (National Center for Advancing Translational Sciences (NCATS), 2011).
# Several values for one entry are separate records, joined by “and”; a condition that tells them apart may be missing. Identical values can stand only once. Out of some 360,000 compounds screened, about 16,000 (4.4%) were called active. The shares of active, inactive and inconclusive entries below differ from those in the screen. Calls come from the whole dose curve; as a rule, active = well fitted inhibition curve with a large enough effect; inconclusive = small, poorly fitted or top-dose-only effect; inactive = no such curve, though single readings can be large or run the other way. Potencies of inconclusive entries are doubtful fits and often do not repeat.
# Target: Bromodomain adjacent to zinc finger domain protein 2B (Homo sapiens) (UniProt Q9UIF8)
# UniProt Q9UIF8, sequence (Q9UIF8 whole entry, looked up, the tested form may be a part): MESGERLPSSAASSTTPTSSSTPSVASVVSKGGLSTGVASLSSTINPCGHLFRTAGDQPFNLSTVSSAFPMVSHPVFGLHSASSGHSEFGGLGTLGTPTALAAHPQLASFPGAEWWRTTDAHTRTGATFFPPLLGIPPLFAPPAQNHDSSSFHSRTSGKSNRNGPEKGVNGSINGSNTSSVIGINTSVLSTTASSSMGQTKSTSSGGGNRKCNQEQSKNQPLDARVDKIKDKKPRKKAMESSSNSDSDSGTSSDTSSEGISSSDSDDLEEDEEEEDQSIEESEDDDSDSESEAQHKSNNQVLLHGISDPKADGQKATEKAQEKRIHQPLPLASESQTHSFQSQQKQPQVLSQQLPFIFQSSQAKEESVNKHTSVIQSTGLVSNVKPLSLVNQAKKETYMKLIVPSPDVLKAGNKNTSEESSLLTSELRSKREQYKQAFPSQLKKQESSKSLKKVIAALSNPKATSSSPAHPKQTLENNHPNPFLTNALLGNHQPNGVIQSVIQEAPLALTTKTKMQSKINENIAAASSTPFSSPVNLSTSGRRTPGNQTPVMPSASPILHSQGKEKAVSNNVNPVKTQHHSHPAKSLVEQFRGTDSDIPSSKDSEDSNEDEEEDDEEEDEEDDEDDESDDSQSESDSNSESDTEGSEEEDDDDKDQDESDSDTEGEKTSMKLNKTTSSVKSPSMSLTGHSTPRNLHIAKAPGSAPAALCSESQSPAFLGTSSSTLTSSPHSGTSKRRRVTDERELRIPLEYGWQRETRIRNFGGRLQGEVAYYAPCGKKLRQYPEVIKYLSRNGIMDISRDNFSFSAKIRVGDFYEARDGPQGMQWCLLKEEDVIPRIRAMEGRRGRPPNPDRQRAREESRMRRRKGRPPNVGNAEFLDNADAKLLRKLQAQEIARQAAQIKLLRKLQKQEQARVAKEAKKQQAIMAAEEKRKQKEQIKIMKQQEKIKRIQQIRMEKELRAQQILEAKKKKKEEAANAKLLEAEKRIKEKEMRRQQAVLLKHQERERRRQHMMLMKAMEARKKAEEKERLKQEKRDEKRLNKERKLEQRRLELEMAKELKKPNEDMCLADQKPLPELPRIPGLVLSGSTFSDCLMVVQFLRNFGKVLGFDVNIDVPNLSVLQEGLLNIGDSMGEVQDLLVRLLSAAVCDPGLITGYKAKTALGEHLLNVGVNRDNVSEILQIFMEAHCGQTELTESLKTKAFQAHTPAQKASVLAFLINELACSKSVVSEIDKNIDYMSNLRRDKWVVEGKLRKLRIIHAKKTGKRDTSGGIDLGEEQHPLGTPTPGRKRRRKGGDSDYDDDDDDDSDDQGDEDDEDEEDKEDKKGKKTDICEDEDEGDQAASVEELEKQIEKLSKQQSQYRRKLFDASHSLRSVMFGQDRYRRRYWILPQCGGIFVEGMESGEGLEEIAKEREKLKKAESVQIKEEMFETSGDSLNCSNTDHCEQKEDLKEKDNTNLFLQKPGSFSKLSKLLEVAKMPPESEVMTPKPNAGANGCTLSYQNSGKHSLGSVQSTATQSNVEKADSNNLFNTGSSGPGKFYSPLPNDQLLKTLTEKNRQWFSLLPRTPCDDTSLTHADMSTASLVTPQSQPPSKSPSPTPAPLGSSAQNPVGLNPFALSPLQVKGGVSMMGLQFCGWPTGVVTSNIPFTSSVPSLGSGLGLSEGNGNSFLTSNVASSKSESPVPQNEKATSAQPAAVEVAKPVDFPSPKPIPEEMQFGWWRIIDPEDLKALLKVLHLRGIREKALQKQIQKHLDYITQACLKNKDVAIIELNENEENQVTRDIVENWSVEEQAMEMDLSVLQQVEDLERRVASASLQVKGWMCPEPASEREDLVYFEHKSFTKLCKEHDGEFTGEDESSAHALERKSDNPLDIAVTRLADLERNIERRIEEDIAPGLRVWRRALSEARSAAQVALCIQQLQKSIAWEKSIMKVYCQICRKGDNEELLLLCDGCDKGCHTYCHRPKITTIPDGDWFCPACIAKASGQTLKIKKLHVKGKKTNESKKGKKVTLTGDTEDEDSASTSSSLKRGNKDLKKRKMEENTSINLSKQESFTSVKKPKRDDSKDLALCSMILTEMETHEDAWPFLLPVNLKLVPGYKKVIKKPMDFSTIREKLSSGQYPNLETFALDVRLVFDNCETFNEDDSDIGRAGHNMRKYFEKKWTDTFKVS
# Assay: qHTS Assay for Inhibitors of BAZ2B; note: nearly all actives have a fitted effect of over 60% in size
# Details: AlphaScreen BAZ2B-H3K14Ac peptide displacement; activity change, negative = inhibition: at 114 µM (top of the series) unless noted
# How it was run: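 AlphaScreen displacement of biotin-H3(5-23)K14Ac peptide (50 nM final) from BAZ2B (50 nM final) in PBS pH 7.4, 0.01% Tween-20; complex preformed 30 min RT, then compounds (top 110 uM) 30 min RT, beads 20 min dark.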
# % is set by controls: 0 for no effect and ±100 for the full control effect; potency is the fitted concentration of half-maximal effect; tags give direction and shape of the fitted curve.
SMILES,Potency,"activity change, negative = inhibition"
CN(CC(=O)Nc1cccc(F)c1)C(=O)c1ccc(-c2ccc(Cl)cc2)o1,"inconclusive: 44.7 µM [inhibitor, partial curve]",–
O=C(Nc1nnc(-c2cccnc2)o1)c1cccc(Cl)c1,"inconclusive: 89.1 µM [inhibitor, single point]",–
O=[N+]([O-])c1nn(-c2ccc(Cl)cc2)n(O)c1=NCc1ccncc1,"inconclusive: 50.1 µM [inhibitor, partial curve, poor fit]",–
CCCSc1ccc([C@@H]2[C@H]3C(=O)N(CC)C(=O)[C@H]3[C@]3(C(=O)OC)CCCN23)cc1,"inconclusive: 89.1 µM [inhibitor, single point]",–
Cc1ccc(NC(=O)CSc2nnc(-c3ccccn3)n2N)cc1F,–,inactive: -19.2%
O=C(CSc1nnc(-c2ccco2)o1)NC1CCCCC1,"inconclusive: 89.1 µM [inhibitor, single point]",–
COc1ccc(/C(C)=C2/SC(=S)N(CCC(=O)O)C2=O)cc1,"inconclusive: 50.1 µM [inhibitor, partial curve]",–
C(=N\n1cnnc1)/c1ccc(OCc2cccc3ccccc23)cc1,"inconclusive: 89.1 µM [inhibitor, single point]",–
CCOC(=O)c1c(NC(=O)/C=C/C(=O)O)sc(C)c1-c1ccc(C)c(C)c1,"inconclusive: 79.4 µM [inhibitor, partial curve]",–
CCOc1cc(CN2CCN(c3ccc(C(C)=O)cc3)CC2)ccc1OC,active: 56.2 µM,–
Cc1cc(/C=C(\C#N)C(=O)NCc2ccco2)c(C)n1C1CCCC1,"inconclusive: 89.1 µM [inhibitor, single point]",–
CC1CCN(C(=S)c2cccc([N+](=O)[O-])c2)CC1,"inconclusive: 79.4 µM [inhibitor, partial curve]",–
CCOC(=O)C(NS(=O)(=O)c1ccccc1)(C(F)(F)F)P(=O)(OCC(C)C)OCC(C)C (centres undefined),–,inactive: 2.33%
Cc1ccc2nc(N3C(=O)C(O)=C(C(=O)c4ccc(C)o4)C3c3ccco3)sc2c1 (centres undefined),active: 50.1 µM,–
O=C(NC1CCCCC1)C(c1ccc(O)cc1)N(CC1CCCO1)C(=O)C1COc2ccccc2O1 (centres undefined),"inconclusive: 89.1 µM [inhibitor, single point]",–
CCNc1nc(NCC)nc(N/N=C/c2ccc(Br)cc2)n1,"inconclusive: 89.1 µM [inhibitor, single point]",–
O=C(CCNc1ccc(Cc2ccncc2)cc1)c1cccc([N+](=O)[O-])c1,active: 25.1 µM,–
COc1cccc(C2c3c(-c4ccccc4O)n[nH]c3C(=O)N2CCc2ccc(OC)c(OC)c2)c1 (centres undefined),"inconclusive: 25.1 µM [inhibitor, full curve]",–
O=C(CSc1ncc(CO)n1Cc1ccccc1)Nc1ccc(C(F)(F)F)cc1,"inconclusive: 31.6 µM [inhibitor, partial curve]",–
CCN(CC)CCOC(=O)c1ccc(N/C=C(/C#N)c2nc(-c3ccc4c(c3)OCO4)cs2)cc1,"inconclusive: 1.26 µM [inhibitor, full curve, poor fit]",–
CC(C)COc1ccc(C(=O)N2CCN(CCc3ccccn3)CC2)cc1,–,inactive: -18.1%
Cc1cc(OC(C)C(=O)NCCCN2CCOCC2)c2c(C)c(C)c(=O)oc2c1 (centres undefined),–,inactive: 0.525%
COc1ccc(OCc2cccc(C(=O)Nc3ccc(CN4CCCCC4)cc3)c2)cc1,"inconclusive: 70.8 µM [inhibitor, single point]",–

SMILES,Potency,"activity change, negative = inhibition"
CNC(=S)Nc1ccc(OC(F)(F)F)cc1,"inconclusive: 100 µM [inhibitor, partial curve]",–
O=C1c2cccc3c([N+](=O)[O-])ccc(c23)C(=O)N1c1ccc(Cl)cn1,active: 44.7 µM,–
O=C(Cn1cc(C(=O)C2CCCCC2)c2ccccc21)NCC1CCCO1 (centres undefined),"inconclusive: 89.1 µM [inhibitor, single point]",–
Cc1cccc(-c2nnc(SCC#N)n2C)c1,–,inactive: 1.72%
CCCOc1ccc(CN(C(=O)c2nc(SC(C)C)ncc2Cl)C2CCS(=O)(=O)C2)cc1 (centres undefined),–,inactive: -25.3%
Cc1cccc(C2c3[nH]c4ccccc4c3CCN2C(=O)c2cc3c([nH]c2=O)CCCC3)n1 (centres undefined),active: 44.7 µM,–
CCOC(=O)c1[nH]n(-c2ccc(Cl)cc2)c(=O)c1C,"inconclusive: 56.2 µM [inhibitor, partial curve]",–
COC(=O)c1cc(C(=O)OC)cc(-n2c(C)cc(C(=O)CC#N)c2C)c1,"inconclusive: 79.4 µM [inhibitor, single point]",–
CCOc1ccc(CN(C)c2nc(-c3cccnc3)nc3ccccc23)cc1OC,active: 35.5 µM,–
COc1ccccc1OCCNC(=O)C(CCSC)NC(=O)c1ccccc1Cl (centres undefined),–,inactive: -6.17%
CCOC(=S)SCC(=O)N1CCc2ccccc2C1C1C(=O)CC(C)(C)CC1=O (centres undefined),"inconclusive: 89.1 µM [inhibitor, single point]",–
C/C(=N/N1CCN(Cc2cccc3ccccc23)CC1)c1cccnc1,"inconclusive: 79.4 µM [inhibitor, single point]",–
COc1cc2c(cc1OC)CN(CC(=O)Nc1ccccc1C(=O)NCc1ccccc1)CC2,"inconclusive: 70.8 µM [inhibitor, single point]",–
Cc1ccc(CNS(=O)(=O)c2ccc(C(F)(F)F)cc2)n1C,"inconclusive: 89.1 µM [inhibitor, single point]",–
CC(C(=O)O)N1C(=O)CSC1=S (centres undefined),"inconclusive: 89.1 µM [inhibitor, single point]",–
CC1=CC(C)(C)N(S(=O)(=O)c2ccc(C)cc2)c2cc(C)ccc21,"inconclusive: 100 µM [inhibitor, single point]",–
Clc1ccc(Cl)c(OCCN2CCCC2)c1,"inconclusive: 35.5 µM [inhibitor, partial curve]",–
CCCOC(=O)C1=C(C)NC2=C(C(=O)C(C(=O)OC)C(C)C2)C1c1ccc(N(C)C)cc1 (centres undefined),"inconclusive: 50.1 µM [inhibitor, partial curve]",–
Brc1ccccc1C1N=C(c2ccccc2)NO1 (centres undefined),–,inactive: 9.17%
CCc1nnc(NC(=O)C2Cc3ccccc3CN2S(=O)(=O)c2cccs2)s1 (centres undefined),–,inactive: -0.987%
O=C(CN(c1ccccc1)S(=O)(=O)c1ccc(F)cc1)N1CCCCCC1,"inconclusive: 89.1 µM [inhibitor, single point]",–
CC(=O)Nc1ccc(NC(=O)c2ccc(CSc3ccccc3)o2)cc1,"inconclusive: 89.1 µM [inhibitor, single point]",–
Cc1cc2[nH]c(=O)c(=O)[nH]c2cc1S(=O)(=O)N1CCN(c2cccc(C)c2C)CC1,"inconclusive: 79.4 µM [inhibitor, single point] and inconclusive: 89.1 µM [inhibitor, single point]",–

SMILES,Potency,"activity change, negative = inhibition"
CCCCNC(=S)NCc1ccc2[nH]c(C)cc2c1,"inconclusive: 44.7 µM [inhibitor, partial curve]",–
NC(=O)CC(NC(=O)c1ccccc1)c1ccc(NC2CCN(Cc3ccccc3)CC2)c([N+](=O)[O-])c1 (centres undefined),"inconclusive: 50.1 µM [inhibitor, partial curve]",–
O=C(O)CC(c1ccc(F)cc1F)N1Cc2ccccc2C1=O (centres undefined),–,inactive: -0.673%
COC(=O)CCc1sc(NC2CCCCC2)nc1-c1ccc(OC)cc1,"inconclusive: 44.7 µM [inhibitor, partial curve]",–
Cc1ccc(NC(=O)CCC(=O)c2cccs2)cc1F,"inconclusive: 8.91 µM [inhibitor, full curve, poor fit]",–
O=C(/C=C/c1ccccc1)CC(=O)c1ccccc1O,"inconclusive: 39.8 µM [inhibitor, partial curve]",–
Cc1ccc2c(c1)-c1c(ssc1=S)C(C)(C)N2C(=O)CN1C(=O)c2ccccc2C1=O,"inconclusive: 7.08 µM [inhibitor, full curve, poor fit]",–
Cc1cc(OCC(=O)NC2CC(C)(C)NC(C)(C)C2)c2c(C)c(C)c(=O)oc2c1,"inconclusive: 79.4 µM [inhibitor, single point]",–
CC1CCCC(C)N1/N=C/c1ccc(C#N)cc1 (centres undefined),"inconclusive: 50.1 µM [inhibitor, partial curve]",–
Cc1ccc(-c2nn(CC(=O)NC3CCCCC3)c3c2cnc2ccccc23)cc1,–,inactive: -11.3%
COc1ccc2cc(-c3[nH]ncc3CN3C[C@@H]4CCC[C@H]3C4)ccc2c1,–,inactive: 0.0968%
COc1ccc(NC(=O)c2nc3nc(C)cc(C(F)F)n3n2)cc1OC,–,inactive: 36.3%
Cc1cccc(-n2c(-c3ccncc3)n[nH]c2=S)c1C,–,inactive: -12.9%
Cn1nc(-c2ccccc2)c(C(=O)NC(C(=O)O)c2ccccc2)c1Cl (centres undefined),active: 50.1 µM,–
O=[N+]([O-])c1ccccc1Nc1nc(-c2cccnc2)cs1,active: 14.1 µM,–
COc1ccc(-c2nc(C#N)c(NCc3ccc(C)cc3)o2)cc1OC,–,inactive: -6.95%
COc1cc(/C=N/Nc2ccc(C)cc2)cc(Br)c1O,"inconclusive: 50.1 µM [inhibitor, partial curve]",–
COc1ccc(/C=C(\C#N)C(=O)Nc2cc(S(=O)(=O)N3CCOCC3)ccc2N2CCCC2)cc1,"inconclusive: 28.2 µM [inhibitor, full curve]",–
CC1=C(C(N)=O)C(c2ccc(F)cc2)n2nc(-c3ccc(N(C)C)cc3)nc2N1 (centres undefined),"inconclusive: 39.8 µM [inhibitor, partial curve]",–
CC1(C)NC(=O)N(CC(O)COc2ccccc2-c2ccccc2)C1=O (centres undefined),–,inactive: 10.4%
COc1cc(/C=C/C(=O)c2ccc(F)cc2)cc(OC)c1OC,"inconclusive: 89.1 µM [inhibitor, single point]",–
Cc1ccc(Cn2c(C(=O)O)c(CNCc3cccs3)c3ccc(C)cc32)cc1,–,inactive: -34.9%
Cc1c(C(=O)O)sc2nc(CSc3ncc(C(F)(F)F)cc3Cl)[nH]c(=O)c12,active: 50.1 µM,–
